Changes are numbered by the printed parent chain; changes in the protein carry UniProt numbers. This is one part of the list.
T1: RBFOX1 RRM RbFoxmut (Fox-RRM*) (Homo sapiens, UniProt Q9NWB1 109-208, R118D;E147R;N151S;E152T)
T1 sequence: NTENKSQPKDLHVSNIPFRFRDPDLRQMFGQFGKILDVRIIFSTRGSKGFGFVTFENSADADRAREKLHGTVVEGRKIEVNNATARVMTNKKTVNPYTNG

B1: CAAGGAU (DNA:RNA)
RNA: GGGAGACCGGAAUUCAGAUUGUCCCAAGGAUUUAAAUCCCGUCGUAGCCACCA
DNA 1: CAATCTGAATTCCGGTCTCCC
DNA 2: TGGTGGCTACGACGGGATT
B2: UCCGCAC (DNA:RNA)
RNA: B1 RNA with C25U, A26C, A27C, G29C, U31C
DNA 1: CAATCTGAATTCCGGTCTCCC
DNA 2: TGGTGGCTACGACGGGATT
B3: UUGAGAG (DNA:RNA)
RNA: B1 RNA with C25U, A26U, A27G, G28A, U31G
DNA 1: CAATCTGAATTCCGGTCTCCC
DNA 2: TGGTGGCTACGACGGGATT
B4: AAAUUCC (DNA:RNA)
RNA: B1 RNA with C25A, G28U, G29U, A30C, U31C
DNA 1: CAATCTGAATTCCGGTCTCCC
DNA 2: TGGTGGCTACGACGGGATT
B5: UGGGGUU (DNA:RNA)
RNA: B1 RNA with C25U, A26G, A27G, A30U
DNA 1: CAATCTGAATTCCGGTCTCCC
DNA 2: TGGTGGCTACGACGGGATT
B6: GCGUUAG (DNA:RNA)
RNA: B1 RNA with C25G, A26C, A27G, G28U, G29U, U31G
DNA 1: CAATCTGAATTCCGGTCTCCC
DNA 2: TGGTGGCTACGACGGGATT
B7: CUGCCUC (DNA:RNA)
RNA: B1 RNA with A26U, A27G, G28C, G29C, A30U, U31C
DNA 1: CAATCTGAATTCCGGTCTCCC
DNA 2: TGGTGGCTACGACGGGATT
B8: UCGCAAG (DNA:RNA)
RNA: B1 RNA with C25U, A26C, A27G, G28C, G29A, U31G
DNA 1: CAATCTGAATTCCGGTCTCCC
DNA 2: TGGTGGCTACGACGGGATT
B9: UUGAAAC (DNA:RNA)
RNA: B1 RNA with C25U, A26U, A27G, G28A, G29A, U31C
DNA 1: CAATCTGAATTCCGGTCTCCC
DNA 2: TGGTGGCTACGACGGGATT
B10: UAGGCAU (DNA:RNA)
RNA: B1 RNA with C25U, A27G, G29C
DNA 1: CAATCTGAATTCCGGTCTCCC
DNA 2: TGGTGGCTACGACGGGATT
B11: UUGUGCU (DNA:RNA)
RNA: B1 RNA with C25U, A26U, A27G, G28U, A30C
DNA 1: CAATCTGAATTCCGGTCTCCC
DNA 2: TGGTGGCTACGACGGGATT
B12: CAAGAUU (DNA:RNA)
RNA: B1 RNA with G29A, A30U
DNA 1: CAATCTGAATTCCGGTCTCCC
DNA 2: TGGTGGCTACGACGGGATT
B13: CUUCCCC (DNA:RNA)
RNA: B1 RNA with A26U, A27U, G28C, G29C, A30C, U31C
DNA 1: CAATCTGAATTCCGGTCTCCC
DNA 2: TGGTGGCTACGACGGGATT
B14: GUAUGCA (DNA:RNA)
RNA: B1 RNA with C25G, A26U, G28U, A30C, U31A
DNA 1: CAATCTGAATTCCGGTCTCCC
DNA 2: TGGTGGCTACGACGGGATT
B15: GCAGAAA (DNA:RNA)
RNA: B1 RNA with C25G, A26C, G29A, U31A
DNA 1: CAATCTGAATTCCGGTCTCCC
DNA 2: TGGTGGCTACGACGGGATT
B16: AUGUUGG (DNA:RNA)
RNA: GGGAGACCGGAAUUCAGAUUGUCCAUGUUGGUUAAAUCCCGUCGUAGCCACCA
DNA 1: CAATCTGAATTCCGGTCTCCC
DNA 2: TGGTGGCTACGACGGGATT
B17: UACCUUU (DNA:RNA)
RNA: B1 RNA with C25U, A27C, G28C, G29U, A30U
DNA 1: CAATCTGAATTCCGGTCTCCC
DNA 2: TGGTGGCTACGACGGGATT
B18: CAACUAU (DNA:RNA)
RNA: B1 RNA with G28C, G29U
DNA 1: CAATCTGAATTCCGGTCTCCC
DNA 2: TGGTGGCTACGACGGGATT
B19: AAAACCG (DNA:RNA)
RNA: B16 RNA with U26A, G27A, U28A, U29C, G30C
DNA 1: CAATCTGAATTCCGGTCTCCC
DNA 2: TGGTGGCTACGACGGGATT
B20: CUCAAAU (DNA:RNA)
RNA: B1 RNA with A26U, A27C, G28A, G29A
DNA 1: CAATCTGAATTCCGGTCTCCC
DNA 2: TGGTGGCTACGACGGGATT

Each binder was assayed against T1, RBFOX1 RRM RbFoxmut (Fox-RRM*) (assay: EMSA; HiTS-Eq, 1 nM pool, 10 min; buffer printed only for the single-RNA assays: 10 mM Tris pH 7.5, 150 mM NaCl, 3.4 mM EDTA, 0.001% NP-40, 30 C). Conditions: tags: His6 N-terminal (pET28a); label: 5' 32P.
Procedure, shortened: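 Purified wild-type or mutant RbFox RRM at increasing concentrations was equilibrated with 1 nM of 5′-radiolabelled RNA carrying 7 randomized nucleotides for 10 min in 50 µL. Unbound RNA was separated by 8% native PAGE and sequenced. Relative association constants came from read-count changes of each RNA species compared with the control reaction, normalised to the cognate motif.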

**Q.** For B1, which binding signal is on record?
**A.** Its binding signal is 0.0733 KA relative to UGCAUGU.

**Q.** For B2, which binding signal is on record?
**A.** Its binding signal is 0.0707 KA relative to UGCAUGU.

**Q.** Which binding signal does the source give for B3 here?
**A.** Its binding signal is 0.105 KA relative to UGCAUGU.

**Q.** For B4, which binding signal is on record?
**A.** The binding signal was 0.0443 KA relative to UGCAUGU.

**Q.** With B5 as the binder, how does the binding signal read?
**A.** Its binding signal is 0.107 KA relative to UGCAUGU.

**Q.** How did the binding signal turn out when B6 was run?
**A.** The binding signal was 0.111 KA relative to UGCAUGU.

**Q.** How did the binding signal turn out when B7 was run?
**A.** Its binding signal is 0.0844 KA relative to UGCAUGU.

**Q.** With B8 as the binder, how does the binding signal read?
**A.** The binding signal was 0.0758 KA relative to UGCAUGU.

**Q.** How did the binding signal turn out when B9 was run?
**A.** The binding signal was 0.0764 KA relative to UGCAUGU.

**Q.** How did the binding signal turn out when B10 was run?
**A.** Its binding signal is 0.0798 KA relative to UGCAUGU.

**Q.** How did the binding signal turn out when B11 was run?
**A.** Its binding signal is 0.116 KA relative to UGCAUGU.

**Q.** Which binding signal does the source give for B12 here?
**A.** The binding signal was 0.0792 KA relative to UGCAUGU.

**Q.** B13 was tested. Which binding signal did it give?
**A.** Its binding signal is 0.0452 KA relative to UGCAUGU.

**Q.** For B14, which binding signal is on record?
**A.** The binding signal was 0.574 KA relative to UGCAUGU.

**Q.** With B15 as the binder, how does the binding signal read?
**A.** The binding signal was 0.0723 KA relative to UGCAUGU.

**Q.** Which binding signal does the source give for B16 here?
**A.** The binding signal was 0.123 KA relative to UGCAUGU.

**Q.** Which binding signal does the source give for B17 here?
**A.** Its binding signal is 0.0784 KA relative to UGCAUGU.

**Q.** For B18, which binding signal is on record?
**A.** Its binding signal is 0.0777 KA relative to UGCAUGU.

**Q.** For B19, which binding signal is on record?
**A.** The binding signal was 0.103 KA relative to UGCAUGU.

**Q.** B20 was tested. Which binding signal did it give?
**A.** The binding signal was 0.0869 KA relative to UGCAUGU.
